The values that follow come from the supplement of paper PMC10338343.

± gives the standard deviation. The entries are a selection whose mix differs from that of the whole data set.

In the assay the test system is MIWI (PIWIL1) piRISC loaded with L1MC piRNA (30 nt). Nature of the assay: pre-steady-state target cleavage rate (min^-1); MIWI and MILI are mouse PIWI proteins and EfPiwi is from a freshwater sponge; tags in brackets are library labels; higher = faster piRNA-guided slicing of the target. The settings on record: guide: L1MC piRNA 5'p-UAACUAAAUACUAUGCAAGCUGUAGGUCCU; auxiliary factor: 500 nM mouse GTSF1. A digest of the protocol: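 Cleave-'n-Seq: 1 nM active affinity-purified piRISC with one synthetic guide and 0.1 nM transcribed, DNA-blocked target RNA library were mixed, with or without 500 nM GTSF1 partner protein, in HEPES–potassium acetate buffer at 33 °C for 0–8 or 0–960 min. Uncleaved targets were sequenced and normalised to depth and to weakly complementary targets, three trials were pooled, and k3 was capped at 0.0001 min^-1. The pre-steady-state cleavage rate was fitted […].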
Take UCCUGGAUGAGCAUGGAUAGUAUUUAGUUA: the “pre-steady-state target cleavage rate” value came out at 0.475 ± 0.042.

Take UCCUGGAUGUGCUUGCAUAGUAUUUGGUUA: the “pre-steady-state target cleavage rate” value was 0.316 ± 0.022.

Turning to UCCUGCUACAGGUUGCAUAGUUUUUAGUUA, the “pre-steady-state target cleavage rate” value was determined as 0.252 ± 0.023.

UGGACCUACAGCCUUGCAUAGUAUUUAGUUA: the “pre-steady-state target cleavage rate” value came to 1.21 ± 0.081.

For UCCUGGAUGAGCUAGCAUACUAUUUAGUUA, the “pre-steady-state target cleavage rate” value worked out at 0.145 ± 0.021.

In the case of UCCUGGUUCAGCUUGCAAAGUAUUUAGUUA, the “pre-steady-state target cleavage rate” value stood at 1.04 ± 0.049.

With UCCUGGAUGUGCUUGCAUAGUAUAAUGUUA, the “pre-steady-state target cleavage rate” value turned out to be 0.0735 ± 0.015.

Turning to UGGACCUACAGCUUGGAUAGUAUUUAGAUA, the “pre-steady-state target cleavage rate” value worked out at 0.427 ± 0.05.

Turning to UCCACCUACAGCCUUGCAUAGUAUUUAGUUA, the “pre-steady-state target cleavage rate” value is 0.944 ± 0.05.

Turning to UCCUCCUACAGGUUGCAUACUAUUUAGUUA, the “pre-steady-state target cleavage rate” value is 0.273 ± 0.025.

Take UCCUGGAUCAGCAUGCAUAGUUUUUAGUUA: the “pre-steady-state target cleavage rate” value is 0.1 ± 0.011.

As to UCCUGGUACAGGUUGCAUAGUUUUUAGUUA, the “pre-steady-state target cleavage rate” value is 0.153 ± 0.028.

Take UCCUGCUACAAGCUUGCAUAGUAUUUAGUUA: the “pre-steady-state target cleavage rate” value is 0.539 ± 0.038.

In the case of UCGACCUACACCUUGCAUAGUAUUUUCAAA, the “pre-steady-state target cleavage rate” value was 0.405 ± 0.056.

UCCUGGAUCAGCUUGCAUAGUAUUAAGUUA: the “pre-steady-state target cleavage rate” value was 0.758 ± 0.038.

Consider UCGACCUACAGGUUGCAUAGAAUUUAGUUA, for which the “pre-steady-state target cleavage rate” value worked out at 0.315 ± 0.021.

For UCCUGGAUGUGGUUGCAUAGUAUUUACUUA, the “pre-steady-state target cleavage rate” value was found to be 0.0113 ± 0.011.

On to AGGACCUAGAGCUAGCAUAGUAUUUAGUUA, for which the “pre-steady-state target cleavage rate” value was 0.983 ± 0.05.

With UCCUGGAUGUGCUUGCAUACUAUUUUGUUA, the “pre-steady-state target cleavage rate” value came to 0.0217 ± 0.0069.

In the case of AGGACGUUCAGCUUGCAUAGUAUUUAGUUA, the “pre-steady-state target cleavage rate” value came to 1.35 ± 0.063.

Turning to UCGUCCUACAGCUUCCAUAGUAUUUAGUUA, the “pre-steady-state target cleavage rate” value came to 0.111 ± 0.027.

Turning to ACGACCUACAGCUUGCAUAGUAUUUAGAAA, the “pre-steady-state target cleavage rate” value worked out at 0.619 ± 0.047.

In the case of UCGAGGAACAGCUUGCAUAGUAUUUACAAA, the “pre-steady-state target cleavage rate” value amounted to 0.517 ± 0.063.

UCCUGGUACAGCUUGGAUAGUAUUUAGUAA: the “pre-steady-state target cleavage rate” value is 0.421 ± 0.095.

With UCCUGGAUGAGCUUGCAUUGUUUUUAGUUA, the “pre-steady-state target cleavage rate” value is 0.0119 ± 0.0042.

On to UGGACCACAGCUUGCAUAGUAUUUAGUUA, for which the “pre-steady-state target cleavage rate” value came out at 1.47 ± 0.083.

As for UCCUGGAUGUCCGUUGCAUAGUAUUUAGUUA, the “pre-steady-state target cleavage rate” value came to 0.013 ± 0.0052.

For UGGACCUACAGCUUGCAUAGUAUUUAUGUUA, the “pre-steady-state target cleavage rate” value worked out at 0.48 ± 0.041.

Turning to UCCUCCUACAGCUUGCAUAGUGAUUUAGUUA, the “pre-steady-state target cleavage rate” value was 0.0757 ± 0.012.

Regarding UCCUGGAACAGCUUGCAUAGUAUUUAGUAA, the “pre-steady-state target cleavage rate” value worked out at 0.685 ± 0.046.

As for UCGACCUACAGCUAGCAUUGUAUUUAGUUA, the “pre-steady-state target cleavage rate” value came out at 0.822 ± 0.045.

For the sequence AGGACCUACAGCUUGCAUAGAAUUAAGUUA, the “pre-steady-state target cleavage rate” value is 0.311 ± 0.031.

On to UCCUGCUACAGCUUGCAUUGUAAUUAGUUA, for which the “pre-steady-state target cleavage rate” value was found to be 0.48 ± 0.032.

For the sequence UCCACCAACAGCUUGCAUAGUAAUUAGUUA, the “pre-steady-state target cleavage rate” value was found to be 0.715 ± 0.032.

As for UCCUGCUACAGCUAGCAAAGUAUUUAGUUA, the “pre-steady-state target cleavage rate” value worked out at 1.09 ± 0.084.

Take UCCUGGUACAGCUUGCUUAGUAUUUAGAUA: the “pre-steady-state target cleavage rate” value turned out to be 0.249 ± 0.041.

For UCCUGGAAGAGCUAGCAUAGUAUUUAGUUA, the “pre-steady-state target cleavage rate” value turned out to be 0.586 ± 0.035.

Regarding UCCUCCUAGAGCUUGCAUAGUAUUUAGUUA, the “pre-steady-state target cleavage rate” value stood at 0.719 ± 0.056.

Take UCCUGGAUCAGCUUGGAUAGUAUUUAGUAA: the “pre-steady-state target cleavage rate” value was 0.332 ± 0.045.

Take UCCACCUACAGCUUGCAUAGUAUUUGAGUUA: the “pre-steady-state target cleavage rate” value is 0.506 ± 0.046.
